From paper PMC4336329 (PLoS ONE, 2015)
Screen size: about 310,000 compounds; about 2,200 (0.71%) showed an effect of 50% or more. Effects have a minus sign here. The list shows a part of the results.

What follows are compounds tested against human ether-à-go-go-related gene (hERG) potassium channel (human, UniProt Q12809) (assay: primary screen, population patch clamp on CHO cells stably expressing hERG).
human ether-à-go-go-related gene (hERG) potassium channel, sequence (Q12809 whole entry, looked up): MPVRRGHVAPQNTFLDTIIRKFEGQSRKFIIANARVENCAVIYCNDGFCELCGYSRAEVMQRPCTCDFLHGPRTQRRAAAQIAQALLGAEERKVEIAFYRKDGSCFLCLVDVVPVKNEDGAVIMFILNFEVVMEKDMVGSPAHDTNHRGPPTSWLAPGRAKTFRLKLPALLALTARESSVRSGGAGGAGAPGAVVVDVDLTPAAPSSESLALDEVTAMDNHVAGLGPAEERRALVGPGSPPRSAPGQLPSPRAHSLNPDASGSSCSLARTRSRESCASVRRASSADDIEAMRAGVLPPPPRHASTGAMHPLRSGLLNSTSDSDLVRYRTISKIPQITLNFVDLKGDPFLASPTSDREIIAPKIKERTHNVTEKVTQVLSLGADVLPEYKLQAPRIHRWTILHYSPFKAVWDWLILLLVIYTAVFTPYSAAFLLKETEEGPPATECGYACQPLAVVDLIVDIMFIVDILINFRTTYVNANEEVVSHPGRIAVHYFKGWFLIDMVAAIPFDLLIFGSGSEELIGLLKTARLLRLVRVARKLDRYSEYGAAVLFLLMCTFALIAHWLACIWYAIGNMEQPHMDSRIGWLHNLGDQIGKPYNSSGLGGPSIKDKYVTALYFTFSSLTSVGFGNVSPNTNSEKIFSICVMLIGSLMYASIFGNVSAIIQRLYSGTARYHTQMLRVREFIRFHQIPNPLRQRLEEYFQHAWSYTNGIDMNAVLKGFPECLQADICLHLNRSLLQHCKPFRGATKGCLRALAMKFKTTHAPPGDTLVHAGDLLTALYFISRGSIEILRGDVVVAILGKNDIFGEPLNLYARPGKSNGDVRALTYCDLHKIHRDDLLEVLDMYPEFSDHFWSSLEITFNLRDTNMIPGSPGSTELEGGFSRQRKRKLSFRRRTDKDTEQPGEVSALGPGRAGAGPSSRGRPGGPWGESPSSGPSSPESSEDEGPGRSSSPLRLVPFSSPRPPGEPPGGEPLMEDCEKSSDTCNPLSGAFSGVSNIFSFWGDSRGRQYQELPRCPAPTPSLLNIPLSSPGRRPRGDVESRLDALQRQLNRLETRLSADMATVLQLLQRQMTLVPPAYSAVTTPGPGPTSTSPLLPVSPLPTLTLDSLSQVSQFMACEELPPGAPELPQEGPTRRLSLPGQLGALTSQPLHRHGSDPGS

Row | SMILES | hERG current change (%, negative = inhibition) at 1uM [%]
1 | COc1ccc(-c2ccc(SCC(=O)N3CC(=O)Nc4ccccc43)nn2)cc1 | -16.5
2 | Cc1cnc(C(=O)OCC(=O)Nc2ccc3c(c2)OCCO3)cn1 | 8.91
3 | CCn1c(=O)c2ccccc2n(CC(=O)NCCC2=CCCCC2)c1=O | 12.1
4 | O=S(=O)(c1ccc(OC(F)(F)F)cc1)N1CCC(O)(c2cccc(C(F)(F)F)c2)CC1 | 7.24
5 | O=C(Cn1c(=O)sc2ccccc21)NCc1ccco1 | 9.89
6 | O=C1OC(N2CCN(C(=O)C3CCCO3)CC2)c2ccccc21 (stereo not shown) | 11.7
7 | Cc1ccc(CNC(=O)CN(C)S(=O)(=O)c2ccc3c(c2)n(C)c(=O)c(=O)n3C)cc1 | 13.1
8 | O=C1CCC(C(=O)Nc2nnc(C3CC3)s2)=NN1 | 11.5
9 | Cc1ccc(Cn2c(C(=O)O)cc3sccc32)cc1 | 5.78
10 | Cc1ccc(CNC(=O)C2CCCN(c3nc4ccsc4c(=O)s3)C2)cc1 (stereo not shown) | 5.42
11 | Cc1ccc(S(=O)(=O)N2CCN(C(=O)c3ccc4ccccc4n3)CC2)c(C)c1 | 1.43
12 | COc1ccc(-n2c(SCC(=O)Nc3cc(C)on3)nc3c([nH]c4ccccc43)c2=O)cc1 | 16
13 | Cc1nnc(-c2ccccc2)[nH]c1=O | 6.59
14 | CCOC(=O)C(CCCOc1cccc(CC)c1)C(=O)OCC | 12.9
15 | O=C(O)c1ccc2c(c1)C(=O)N(c1ccc(Cl)cn1)C2=O | 9.94
16 | Cc1ccc2ncc(NC(=O)c3ccc(F)cc3)c(=O)n2c1 | 2.57
17 | Cc1ccc(SCC(=O)O/N=C(\N)c2ccncc2)cc1 | 5.26
18 | COC(=O)[C@@H]1Cc2c([nH]c3ccccc23)C2CCC(=O)N21 (stereo partly shown) | 13.5
19 | Cc1ccc(-c2n[nH]c(=S)n2/N=C/c2sccc2C)cc1 | 14
20 | O=C(CSc1nc2ccccc2c(=O)[nH]1)Nc1ccc(N2CCOCC2)c(Cl)c1 | 16.4
21 | O=C(NC1CCCCCC1)c1ccc(-n2cnnc2)cc1 | 12.8
22 | NS(=O)(=O)c1ccc(CCNc2ccc(C(F)(F)F)cn2)cc1 | 9.53
23 | CCOc1ccccc1N1CC(C(=O)N(CC)CC(=O)Nc2ccc3c(c2)OCCO3)CC1=O (stereo not shown) | 4.09
24 | N#C/C(=C(/O)CCl)c1nc2c(s1)CCc1ccccc1-2 | 11.2
25 | COc1ccc(CN2CCNC(=O)C2CC(=O)NCCc2nc(C)c(C)s2)c(OC)c1 (stereo not shown) | 10.3
